Measurements from patent US20240269235A1 (Gilead, published 2024).

T1: human IL-2Rα on Treg cells (CD3+, CD4+, CD25hi, FoxP3+) of human PBMC (human, UniProt P01589 22-272)
T1 sequence (looked up): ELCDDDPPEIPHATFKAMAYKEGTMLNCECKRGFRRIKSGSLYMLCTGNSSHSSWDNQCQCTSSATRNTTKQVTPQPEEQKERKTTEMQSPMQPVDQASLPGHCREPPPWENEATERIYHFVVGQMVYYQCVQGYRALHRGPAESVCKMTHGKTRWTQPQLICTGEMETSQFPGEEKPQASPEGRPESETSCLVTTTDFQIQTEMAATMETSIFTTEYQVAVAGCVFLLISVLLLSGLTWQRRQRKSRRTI

T2: trimeric murine IL-2 receptor (IL-2Rα, IL-2Rβ, and IL-2Rγ) on CTLL-2 cells (murine, UniProt P01590 22-268; P16297 27-539; P34902 23-369)
T2 sequence (looked up) 1: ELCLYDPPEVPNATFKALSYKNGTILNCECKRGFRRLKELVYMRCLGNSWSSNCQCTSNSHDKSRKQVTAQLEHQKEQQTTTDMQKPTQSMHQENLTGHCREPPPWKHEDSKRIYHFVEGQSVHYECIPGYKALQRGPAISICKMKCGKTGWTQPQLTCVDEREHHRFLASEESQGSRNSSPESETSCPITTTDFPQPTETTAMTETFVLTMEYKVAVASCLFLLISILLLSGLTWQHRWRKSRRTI
T2 sequence (looked up) 2: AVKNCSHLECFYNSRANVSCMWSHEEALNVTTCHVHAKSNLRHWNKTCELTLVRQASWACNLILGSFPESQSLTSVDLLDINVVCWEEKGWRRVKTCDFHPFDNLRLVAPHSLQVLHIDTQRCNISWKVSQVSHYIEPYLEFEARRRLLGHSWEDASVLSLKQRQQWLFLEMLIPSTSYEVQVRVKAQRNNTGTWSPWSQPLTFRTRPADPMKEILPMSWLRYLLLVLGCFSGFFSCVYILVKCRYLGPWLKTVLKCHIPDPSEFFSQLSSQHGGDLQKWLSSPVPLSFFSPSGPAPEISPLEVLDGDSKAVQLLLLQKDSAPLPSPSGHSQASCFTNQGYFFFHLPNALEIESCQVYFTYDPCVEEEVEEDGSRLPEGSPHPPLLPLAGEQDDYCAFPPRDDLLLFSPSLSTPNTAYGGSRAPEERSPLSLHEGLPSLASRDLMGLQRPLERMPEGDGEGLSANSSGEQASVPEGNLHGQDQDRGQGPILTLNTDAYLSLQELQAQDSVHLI
T2 sequence (looked up) 3: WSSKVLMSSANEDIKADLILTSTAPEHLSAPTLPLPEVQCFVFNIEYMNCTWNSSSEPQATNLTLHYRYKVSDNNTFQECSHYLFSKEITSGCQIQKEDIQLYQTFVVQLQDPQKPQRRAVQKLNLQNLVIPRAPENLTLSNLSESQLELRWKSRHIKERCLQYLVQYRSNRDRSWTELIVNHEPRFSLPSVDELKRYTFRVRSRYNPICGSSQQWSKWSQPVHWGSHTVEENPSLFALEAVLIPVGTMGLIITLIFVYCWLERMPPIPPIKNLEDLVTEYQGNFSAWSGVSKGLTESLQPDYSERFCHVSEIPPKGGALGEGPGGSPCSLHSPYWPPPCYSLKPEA

T3: IL-2Rβ (recombinant IL-2 receptor β, R&D Systems Cat #:224-2B-025/CF), biotinylated (UniProt P14784 27-239, limits assumed, biotinylated using sulfo-NHS-LC-LC-Biotin)
T3 construct: Bought reagent; also called IL-2RB; CD122
T3 sequence (looked up): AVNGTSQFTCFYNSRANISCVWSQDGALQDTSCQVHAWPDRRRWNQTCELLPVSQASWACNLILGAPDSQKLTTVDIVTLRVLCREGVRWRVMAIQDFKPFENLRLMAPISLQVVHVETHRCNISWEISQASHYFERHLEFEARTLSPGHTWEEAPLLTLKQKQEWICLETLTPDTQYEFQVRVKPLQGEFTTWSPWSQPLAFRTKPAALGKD

T4: IL-2Rα (recombinant IL-2 receptor α, R&D Systems Cat #: 223-2A/CF), biotinylated (human, UniProt P01589 22-213, limits assumed, biotinylated using sulfo-NHS-LC-LC-Biotin)
T4 construct: Bought reagent; also used here as the IL-2Rα partner of the in-silico analysis of PDB 2B5I (another construct); also called IL-2RA; CD25
T4 sequence (looked up): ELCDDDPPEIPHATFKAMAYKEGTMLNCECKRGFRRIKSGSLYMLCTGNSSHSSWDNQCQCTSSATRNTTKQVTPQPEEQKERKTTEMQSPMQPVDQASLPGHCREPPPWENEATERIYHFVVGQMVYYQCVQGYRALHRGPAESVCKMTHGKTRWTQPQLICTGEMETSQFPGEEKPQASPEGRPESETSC

B1: IL-2Rβγ heterodimer, custom biotinylated Fc fusion protein (human IL-2Rβ 27-240-Fc-FLAG / human IL-2Rγ 23-262-Fc-AviHis) (Fc fusion)
chain 1: AVNGTSQFTCFYNSRANISCVWSQDGALQDTSCQVHAWPDRRRWNQTCELLPVSQASWACNLILGAPDSQKLTTVDIVTLRVLCREGVRWRVMAIQDFKPFENLRLMAPISLQVVHVETHRCNISWEISQASHYFERHLEFEARTLSPGHTWEEAPLLTLKQKQEWICLETLTPDTQYEFQVRVKPLQGEFTTWSPWSQPLAFRTKPAALGKDTGAQ[sequence of human IgG1 Fc with changes omitted]GSGSDYKDDDDK
chain 2: LNTTILTPNGNEDTTADFFLTTMPTDSLSVSTLPLPEVQCFVFNVEYMNCTWNSSSEPQPTNLTLHYWYKNSDNDKVQKCSHYLFSEEITSGCQLQKKEIHLYQTFVVQLQDPREPRRQATQMLKLQNLVIPWAPENLTLHKLSESQLELNWNNRFLNHCLEHLVQYRTDWDHSWTEQSVDYRHKFSLPSVDGQKRYTFRVRSRFNPLCGSAQHWSEWSHPIHWGSNTSKENPFLFALEAGAQ[sequence of human IgG1 Fc with changes omitted]GSGSGLNDIFEAQKIEWHEHHHHHHHH
modifications: site-specific biotinylation at the AviTag
notes: Extracellular regions fused to IgG1 knob-in-hole Fc subunits with tags; also called IL-2 receptor βγ heterodimer; Fc-IL-2Rβγ
B2: Fc-IL-2 heterodimer 118.46 (hIL-2v_T3A_C125S), intact N-terminus (Fc fusion)
chain 1: not shown
chain 2: ESKYGPPCPPCPAPEAAGGPSVFLFPPKPKDTLMISRTPEVTCVVVDVSQEDPEVQFNWYVDGVEVHNAKTKPREEQFNSTYRVVSVLTVLHQDWLNGKEYKCKVSNKGLPSSIEKTISKAKGQPREPQVYTLPPSQEEMTKNQVSLSCAVKGFYPSDIAVEWESNGQPENNYKTTPPVLDSDGSFFLVSRLTVDKSRWQEGNVFSCSVMHEALHNRFTQKSLSLSLGK
B3: Proleukin (ligand)
chain: not shown

Columns and labels:
Proleukin = molecular target: B3; assay: SPR (Biacore), CM4 chip, biotinylated receptor on neutravidin
Procedure: (§1) Fc-IL-2 variant binding data was collected on a Biacore platform using a CM4 chip. Neutravidin was immobilized using standard amine coupling methods and used to capture biotinylated receptors. The source, preparation and immobilization of biotinylated IL-2Rα and IL-2Rβγ heterodimer was as described in Example 4. Proleukin was used as a comparator. Fc-IL-2 variants and Proleukin were injected at various concentrations over these surfaces. Kinetic data obtained from these injections was used to extract kₒₙ and koff to calculate KD (KD=Koff/kₒₙ).

[1] = molecular target: T1, human IL-2Rα on Treg cells (CD3+, CD4+, …); assay: cell-based or functional assay
[2] = molecular target: T2, trimeric murine IL-2 receptor (IL-2Rα, …); assay: cell-based or functional assay
[3] = molecular target: T3, IL-2Rβ (recombinant IL-2 receptor β, …); assay: SPR (Biacore), C1 or CM5 chip, biotinylated receptor on neutravidin
Text: (§2) Data for binding of Fc-IL-2 variant fusion proteins to IL-2Rα, IL-2Rβ and IL-2Rβγ heterodimer were collected on a Biacore platform using either C1 or CM5 chips. Neutravidin was immobilized using standard amine coupling methods and used to capture biotinylated receptors. Commercially sourced IL-2Rα (R&D Systems Cat #: 223-2A/CF) and IL-2Rβ receptors (R&D Systems Cat #:224-2B-025/CF) were biotinylated using sulfo-NHS-LC-LC-Biotin, desalted, and then captured on the neutravidin surfaces. […] Distinct purification tags were appended to the C-terminus of each chain. A FLAG epitope tag ([…]; SEQ ID NO: 257) was added at the C-terminus of IL-2Rβ subunit, followed by C-terminal Hiss tag ([…]; SEQ ID NO: 258). An AviTag™ ([…]; SEQ ID NO: 259) motif on the IL-2Rγ subunit allowed for site-specific biotinylation of the heterodimer.
(§3) Fc IL 2 fusion protein variants, Fc protein, and Proleukin were injected at various concentrations over these surfaces. Kinetic data obtained from these injections was used to extract kₒₙ and koff to calculate KD (KD=koff/kₒₙ). Experiments were run at 25° C. in HBS-EP+ running buffer (10 mM HEPES, 150 mM NaCl, 3 mM EDTA, 0.05% Tween20, pH 7.4 with 0.1 mg/ml BSA). Data shown in Table 5 for Fc IL-2 fusion protein variants binding to the indicated IL-2R surfaces were derived from the global fitting of data obtained from 2-5 independent surfaces.

[4] = molecular target: T4, IL-2Rα (recombinant IL-2 receptor α, …); assay: as above
Text: as §2, §3

[5] = molecular target: T4, IL-2Rα (recombinant IL-2 receptor α, …); assay: SPR (Biacore), CM4 chip, biotinylated receptor on neutravidin
Procedure: as §1

Binder: B1
Kd (Proleukin): 0.052 nM

Binder: B2
Treg EC50, STAT5 activation (PBMC STAT5 assay) [1]: < 0.001 nM
STAT5 activation of CTLL-2 cells, EC50 [2]: 0.002 nM

Binder: B3
Kd [3]: 2300 nM
Kd [4]: 15 nM
Kd [5]: 80 nM
